Hit rate of the full screen: of about 46,000 compounds, about 60 (0.1%) were called active. Not shown: some 3% with an inconclusive outcome. The call rests on the fitted dose curve; in most records, active means well fitted inhibition curve with a large enough effect; inconclusive means small, poorly fitted or top-dose-only effect; inactive means no such curve, though single readings can be large or run the other way. Some of the results follow.
Experiment: Primary qHTS assay for Inhibitors of ovarian cancer metastasis using an organotypic tumor microenvironment (TME) model. Further: nearly all actives have a fitted effect of over 65% in size.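 On activity change, negative = inhibition: plate controls were DMSO wells for no effect and tomatine positive control wells for full effect.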
Conditions: SKOV3ip1-GFP adhesion/invasion on 3D omental model, fluorescence; series mostly up to 45.8 µM; activity change, negative = inhibition: at the top concentration
Procedure, shortened: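 qHTS, 4-pt dose (0.36-46 umol/L); SKOV3ip1-GFP, 1,200 cells/well, no FBS; primary omental fibroblast/mesothelial co-culture 48 h pre-grown; 2 h RT + 16 h 37 C; PBS wash, 4% PFA; GFP count 488/509 nm.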

Activity change, negative = inhibition, inactive:
CCOC(=O)c1ccc(NC(=O)CC2C(=O)N(c3cccc(C)c3)C(=O)N2CCOC)cc1 (stereo not given) 1.57%
CC(C)c1ccc(NC(=O)c2cnc3sc(N4CCCC4)nn3c2=O)cc1 17.4%
Cc1ccc(OCC(=O)Nc2nnc(SCc3cc(=O)n4cccc(C)c4n3)s2)cc1 -1.59%
CCOc1cc(CNC(=O)NC2COc3ccccc3C2)cc(OCC)c1OCC (stereo not given) -2.96%
COc1ccc(OC)c(-c2csc(-c3c(N)c(C(=O)c4ccc(Cl)cc4)n4ccccc34)n2)c1 -8.19%
CCc1cccc(NC(c2ccccc2)c2nnc(-c3ccccc3F)o2)c1 (stereo not given) 4.11%
COc1cccc(CNC(=O)c2cc3c(=O)n(Cc4cccnc4)ccc3nc2C)c1 -18.4%
Cc1ccc(NC(=O)CSc2nc3c(sc4ccccc43)c(=O)n2CCCC(=O)NC2CCCC2)cc1C -9.21%
COc1ccc(C(=O)Nc2nnc(S(=O)(=O)N(C)c3ccc(C)cc3)s2)cc1 -6.06%
COc1ccc(C(=O)Nc2nnc(S(=O)(=O)N3CCN(c4ccc(F)cc4)CC3)s2)cc1 0.487%
CCc1ccccc1Nc1ncnc2c1cnn2-c1ccc(C)cc1C 4.61%
COc1ccccc1CNC(=O)CN(c1ccccc1OC)S(C)(=O)=O 9.97%
CCOC(=O)c1c(C)[nH]c(C)c1S(=O)(=O)N1CCCC(C(=O)NCc2ccccc2Cl)C1 (stereo not given) -4.1%
Cc1ccc2c(c1)Cc1c(nc(-c3ccc(F)cc3)nc1SCC(=O)N1CCCCC1)O2 1.47%
CCCc1cc(=O)oc2c(C)c3c(cc12)CN(CCc1ccc(Cl)cc1)CO3 1.58%
Cc1ccc2oc(-c3cc(NC(=O)CC(C)C)ccc3Cl)nc2c1 -7.84%
CC[C@H](Nc1ncnc2nc[nH]c12)c1nc2cccc(F)c2c(=O)n1-c1ccccc1 -12.4%
Cc1ccc(Nc2c(-c3cccnc3)nc3ccc(Cl)cn23)cc1 6.66%
O=C(Nc1ccc(Cl)cc1)c1ccc(-n2cnnc2)cc1 8.67%
O=C(COCc1cc(-c2cccs2)on1)NCc1ccc(F)cc1 -1.73%
CC(C)c1ccc(NC(=O)C2CCCN2S(=O)(=O)c2ccc3nc(-c4ccccc4)[nH]c3c2)cc1 (stereo not given) 3.92%
CCc1cc(=O)[nH]c(SCc2nc(-c3cccc(Cl)c3)no2)n1 14.5%
Cc1ccc(-n2ncc3c(N4CCN(Cc5ccccc5)CC4)ncnc32)cc1Cl -17.7%
Cc1ccc(Cl)cc1N1CCN(S(=O)(=O)c2ccc3c(c2)C(C(C)C)C(=O)N3)CC1 (stereo not given) 2.75%
CCCc1nnc(NC(=O)Cc2coc3c(C)c(C)ccc23)s1 0.634%
O=S(=O)(c1ccc(-c2csc(=Nc3ccc(F)cc3)n2CCCCCCO)cc1)N1CCCC1 -12.4%
Cc1cccc(OCC(=O)Nc2ccc3c(c2)nc(CN2CCCCC2)n3C)c1 2.85%
COc1ccc(C(=O)N(Cc2sccc2C)C2CCS(=O)(=O)C2)cc1 (stereo not given) -11.2%
Cn1c(C(=O)NCCc2ccccc2)cc2sc(Cl)cc21 0.555%
Cc1ccc(CNC(=O)CSc2nc3ccsc3c(=O)n2-c2ccc(Br)cc2)cc1 15.5%
Cc1nc(C)c(-c2ccc(SCC(=O)Nc3cccc(C)c3C)nn2)s1 -9.37%
Cc1ccc(-n2ncc(C(=O)NCCN3CCN(C)CC3)c2C2CCN(C(=O)OC(C)(C)C)CC2)cc1 -8%
CCOc1ccc(CNC(=O)CN2N=C(c3ccccc3)CCC2=O)cc1OC -5.58%
CCc1ccc(C2C(C(=O)Nc3ccccc3OC)=C(C)Nc3nc(SCc4ccccc4)nn32)cc1 (stereo not given) -3.83%
CCC1Oc2ccc(C)cc2N(CC(=O)N2CCN(c3ccccc3OC)CC2)C1=O (stereo not given) 7.91%
CCOc1ccc(Nc2nc(C)c(NC(=O)c3cccc(F)c3)c(Nc3ccc(OCC)cc3)n2)cc1 -8.03%
COc1cccc(-c2oc3ccc(C)cc3c(=O)c2O)c1 -4.63%
Cc1ccc(Cn2c(CNC(=O)c3ccc(Cl)c([N+](=O)[O-])c3)nc3cccnc32)cc1 2.42%
CCOc1cc(CNC(=O)Cn2ncn3c(cc4cc(F)ccc43)c2=O)cc(OCC)c1OCC 0.777%
CC(=O)c1ccc(NC(=O)CC2Nc3cc(C)c(C)cc3NC2=O)cc1 (stereo not given) -5.41%
Cc1ccccc1C(=O)NNc1ncnc2c1cnn2-c1cccc(Cl)c1 -21.4%
COc1ccc(N2C(=O)CSC23C(=O)N(CC(N)=O)c2ccccc23)cc1 (stereo not given) -2.15%
CCN(Cc1ccccc1)S(=O)(=O)c1ccc(F)c(C(=O)Nc2cc(C(F)(F)F)ccc2Cl)c1 7.74%
COC(=O)Cc1c(C)nc2nc(-c3ccc(C)cc3)[nH]n2c1=O -6.26%
O=C(Nc1cc(C(F)(F)F)ccc1Cl)c1cnn(-c2ccccc2)c1-n1cccc1 -5.14%
CC(C)c1ccc(N2C(=O)N(Cc3ccccc3Cl)c3ccccc3S2(=O)=O)cc1 7.77%
COc1ccccc1C1CC(=O)N(c2cccc(C(F)(F)F)c2)C2=C1C(=O)OC2 (stereo not given) -9.76%
COC(=O)c1c(-c2ccccc2)c(-c2ccccc2)nn(C)c1=O 2.65%
COc1ccc(-n2c(=O)c3c(c4cc(OC)ccc4n3C)n(CCC(C)C)c2=O)cc1 9.8%
COCCNC(=O)CCCn1c(SCc2ccccc2Cl)nc2c(sc3ccccc32)c1=O -4.52%
COC(=O)c1ccc([C@H]2Nc3ccc(S(=O)(=O)Nc4cccc(C)c4)cc3[C@H]3C=CC[C@H]32)cc1 -7.72%
CCN1CCSc2ccc(C(=O)NCc3ccccc3Br)cc21 4.88%
O=c1[nH]c(SCc2cccc(Cl)c2)nc2c1CCC2 1.75%
Cc1cc(CN2CCN(c3ccc(F)cc3)CC2)cs1 4.49%
Cc1c(-c2nnc(SCC(=O)Nc3ccc(Cl)cc3)o2)nnn1-c1ccc(F)cc1 6.58%
Cc1cc(Br)cc2c(C(=O)OCC(=O)c3ccccc3)cc(-c3ccccc3)nc12 8.46%
Cc1cccc(N(CC(N)=O)C2SC(=O)N(Cc3cccc(C(=O)O)c3)C2=O)c1 (stereo not given) 13.3%
COc1ccccc1N1CCN(C(=O)CCS(=O)(=O)c2cc(Br)cc3c2N(C(C)=O)CC3)CC1 -7.69%
COc1ccc(Cn2c(CO)cnc2SCc2cccc(C)c2)cc1 -14.8%
Cc1nc(N2CCCC2)ncc1C(=O)N1CCN(c2ccccc2F)CC1 -19.1%
COc1ccc(CNC(=O)c2cc3c(=O)n(C)c4ccccc4c3n2C)c(OC)c1 9.62%
O=C(COc1ccc(Cl)cc1)NCC(c1ccco1)S(=O)(=O)c1ccc(Cl)cc1 (stereo not given) -9.28%
Cc1ccc(NC(=O)c2nnn(CC(=O)Nc3ccc(C)c(Cl)c3)c2N)c(C)c1 1.84%
CCS(=O)(=O)c1c(Nc2cc(C)ccc2C)sc(C(=O)c2ccccc2)c1N 9.97%
COc1ccc(CCC(=O)c2c(O)cc(O[C@@H]3O[C@H](CO)[C@@H](O)[C@H](O)[C@@H]3O[C@@H]3O[C@@H](C)[C@H](O)[C@@H](O)[C@@H]3O)cc2O)cc1O -1.96%
O=c1c2ccccc2nc(-c2ccc(Cl)cc2)n1CCCOc1ccccc1F 3.35%
COc1ccccc1CCNC(=O)CCc1c(C)c2cc3c(C)c(C)oc3cc2oc1=O 0.133%
Cc1ccc(Cl)cc1NC(=O)CN1C(=O)COc2ccc(S(=O)(=O)N3CCCCCC3)cc21 -2.32%
Cc1cc(OCC(=O)N(Cc2ccc(N(C)C)cc2)C2CCS(=O)(=O)C2)cc(C)c1Cl (stereo not given) -0.378%
CC(C)c1ccc(NC(=O)CC2Oc3ccccc3NC2=O)cc1 (stereo not given) -6.54%
O=C(OC1C[C@H]2CC[C@@H](C1)[N+]21CCCC1)C(O)(c1ccccc1)c1ccccc1 (stereo not given in full) 0.622%
COc1ccc(NC(=O)Cn2c(=O)n(-c3ccc(OC)cc3)c(=O)c3ccc(C(=O)NCc4ccc(C)cc4)cc32)cc1 -17.3%
CCN(C(=O)C(Cc1ccccc1)NS(=O)(=O)c1cccc2nsnc12)c1ccccc1 (stereo not given) 0.812%
O=C(c1cccs1)c1cn(CCOc2ccccc2Cl)c2ccccc12 -1.91%
Cc1ccc(NC(=O)C(=O)NCC(c2ccc3c(c2)OCO3)N2CCN(c3ccccc3)CC2)cc1 (stereo not given) 6.52%
COc1ccc(C2C(=O)N(C3CCCCCC3)CC(=O)N2CCc2ccc(OC)c(OC)c2)cc1 (stereo not given) -6.79%

outcome, inactive:
CC(C)COc1ccc(C(=O)Nc2nnc(S(=O)(=O)N(C)Cc3ccco3)s2)cc1
CCC(C)NC(=O)Cn1c(=O)n(-c2ccc(OC)c(OC)c2)c(=O)c2ccccc21 (stereo not given)
COc1ccc2cc(CCNS(=O)(=O)c3ccc(C)cc3)c(=O)[nH]c2c1
CCOC(=O)C1CCN(C(=O)c2c(C)nn(-c3ccc(F)cc3)c2-n2cccc2)CC1
COc1cc(NC(=O)Cn2ccc3ccccc3c2=O)cc(OC)c1OC
CCOCCCn1c(SCC(=O)Nc2ccc(CC)cc2)nc2ccccc2c1=O
Cc1noc(C)c1S(=O)(=O)N(CC(=O)NCCc1ccc(Cl)cc1)c1ccc(C(C)C)cc1
CCc1ccc(NC(=O)C2CCN(S(=O)(=O)c3cccc(-c4noc(C)n4)c3)CC2)cc1
CCOc1cccc2sc(NC(=O)CS(=O)(=O)c3ccc(C)cc3)nc12
CCOc1ccc(CCNC(=O)c2cnc3sc(N4CCCCC4)nn3c2=O)cc1
COc1ccc(-n2c(=O)c3sc4ccccc4c3n(CC(=O)NC3CCCCC3)c2=O)cc1
CCCCOc1ccc(C(=O)N(Cc2ccco2)Cc2ccco2)cc1
CCC(=O)Nc1nnc2n1CCS2
Cc1cc(C)c2oc(-c3ccc(C)c(NC(=O)/C=C/c4ccco4)c3)nc2c1
COc1cccc(-c2nc(S(=O)(=O)c3ccccc3)c(N3CCC(C)CC3)o2)c1
CC1=C(C(=O)Nc2ccccc2)C(c2cc(Br)ccc2F)n2ncc(C(=O)Nc3ccccc3)c2N1 (stereo not given)
Cc1ccc(C(=O)n2nc(C)c(S(=O)(=O)N3CCOCC3)c2C)cc1C
COc1cc(C(=O)NCCc2csc3nc(-c4ccccc4C)nn23)cc(OC)c1OC
Cc1ccc2nc(CN3CCN(C(=O)Nc4ccc(C)c(F)c4)CC3)oc2c1

Source: PubChem BioAssay AID1963576 (National Center for Advancing Translational Sciences (NCATS), 2024)
